Reference: the supplement of paper PMC10126150
Values marked as one replicate rest on one cluster of the flow cell; about a third of the high ones do not repeat.

System: ATP
Assay: switch fluorescence ratio, 500 uM ATP over buffer (Cy3 cluster intensity, sum of 5 cycles each) (fold (ratio)); higher = stronger signal-on switching upon ATP binding; sequences stand for … in TCGTCGGCAGCGTCAGATGTGTATAAGAGACAGTTTTTTTTTTTTTTTTTTTTTTTTT…TC
Details: aptamer strand: ATP DNA aptamer (quencher-CACCTGGGGGAGTATTGCGGAGGAAGG + anchor), 100 nM annealed; ATP concentration: 500 uM; one replicate
Method in brief: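 For every switch-domain sequence, the fluorescence ratio is the mean of per-cluster values, each being summed target-cycle Cy3 intensity over summed buffer-cycle Cy3 intensity. Clusters outside 100-1000 RFU were excluded. On a modified Illumina MiSeq flow-cell, the Cy3-labelled switching-strand clusters were annealed to 100 nM quencher-labelled ATP aptamer, imaged in selection buffer and then after 15 min with 500 uM ATP at 22 °C. Five such cycles were run, with NaOH stripping and re-annealing between them.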
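Note: ATP exposure 15 min at 22 °C before imaging.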

Sequence TATACAATT has a switch fluorescence ratio of 1.03.
For CTGGGCATAG, the switch fluorescence ratio was 1.19.
Sequence ACGTAAACTT has a switch fluorescence ratio of 1.11.
With AACCTGGATC the switch fluorescence ratio was 2.43.
Work on TGATTCGTAG yielded a switch fluorescence ratio of 1.05.
In the case of ATAGTCGCTT, the switch fluorescence ratio is reported as 0.99.
For TTACGGACAC, the switch fluorescence ratio was 1.23.
AACTTGTGTT gave a switch fluorescence ratio of 1.01.
With ACCATTCCTT the switch fluorescence ratio was 1.05.
With GTTGCTCTCC the switch fluorescence ratio was 1.09.
For CCAGCAGGCT, the switch fluorescence ratio was 1.1.
For TTCATATAAA, the switch fluorescence ratio was 0.979.
In the case of TGGTGCTGAT, the switch fluorescence ratio is reported as 1.03.
GTGATCTGAA showed a switch fluorescence ratio of 0.949.
CGGGAGGGCG was tested, and the switch fluorescence ratio was 0.999.
With CAGACGGTTC the switch fluorescence ratio was 1.09.
Work on AGTCCCAACG yielded a switch fluorescence ratio of 0.983.
TCAGATTGCT gave a switch fluorescence ratio of 0.995.
TTTCTCCGAT showed a switch fluorescence ratio of 1.
For GCGGGTTCAC, the switch fluorescence ratio was 1.03.
In the case of CAGAGAGATT, the switch fluorescence ratio is reported as 1.01.
Work on AGTGCGATGG yielded a switch fluorescence ratio of 1.03.
In the case of TGGGAGTTAC, the switch fluorescence ratio is reported as 1.04.
CAAGCGGTTT was tested, and the switch fluorescence ratio was 0.955.
In the case of TAGCCGGCGC, the switch fluorescence ratio is reported as 0.987.
In the case of CGGACTTTCT, the switch fluorescence ratio is reported as 1.
Sequence TTGCGCTAAA has a switch fluorescence ratio of 1.02.
In the case of GATTGTGAAC, the switch fluorescence ratio is reported as 1.03.
GTATGTAATA showed a switch fluorescence ratio of 0.961.
In the case of CATTGAAGG, the switch fluorescence ratio is reported as 0.99.
Work on TGACCCCGG yielded a switch fluorescence ratio of 0.993.
CCGGCATTGT showed a switch fluorescence ratio of 1.21.
For CAGCAAGCTG, the switch fluorescence ratio was 1.05.
GGTAATGGAG showed a switch fluorescence ratio of 1.02.
ATGAGCGAGG gave a switch fluorescence ratio of 0.951.
In the case of GGGAATTTCC, the switch fluorescence ratio is reported as 1.02.
TCAATGGCTC gave a switch fluorescence ratio of 0.994.
For TCGGATTTAA, the switch fluorescence ratio was 1.
With CAAAAACACA the switch fluorescence ratio was 1.19.
CTATCGCCTA showed a switch fluorescence ratio of 0.992.
TAGGCGTGTA showed a switch fluorescence ratio of 0.999.
For ATTTGAGGCG, the switch fluorescence ratio was 1.02.
Work on AAATGTCCCT yielded a switch fluorescence ratio of 1.04.
GCTCCTGGAG gave a switch fluorescence ratio of 0.97.
With TATTGTGAGG the switch fluorescence ratio was 1.
CGCTTTGACA was tested, and the switch fluorescence ratio was 0.997.
GTTAACCCCC showed a switch fluorescence ratio of 2.5.
Work on ATGGGATTCG yielded a switch fluorescence ratio of 1.03.
GCGGCCGCTG gave a switch fluorescence ratio of 1.01.
With CACATGATAG the switch fluorescence ratio was 1.04.
TAAATTATGA was tested, and the switch fluorescence ratio was 1.
GTGAAGGCGT showed a switch fluorescence ratio of 1.03.
TTAACGCAGC gave a switch fluorescence ratio of 1.39.
With AAGCAGCCTG the switch fluorescence ratio was 1.01.
Sequence CAAGGGACTC has a switch fluorescence ratio of 1.01.
Work on TTGATTGTGC yielded a switch fluorescence ratio of 0.996.
CGGCCAATTC was tested, and the switch fluorescence ratio was 1.16.
GATTGCGGGA was tested, and the switch fluorescence ratio was 0.978.
For CCTGGGAAAG, the switch fluorescence ratio was 0.997.
Sequence ACGATCATCT has a switch fluorescence ratio of 1.06.
For GGCGAGCCCG, the switch fluorescence ratio was 0.998.
For CACGTGGGGC, the switch fluorescence ratio was 1.01.
Work on GGTGTAGATC yielded a switch fluorescence ratio of 1.06.
CGTACGGCTG gave a switch fluorescence ratio of 1.09.
Work on AACAATTTCA yielded a switch fluorescence ratio of 0.982.
For TCCGATTACA, the switch fluorescence ratio was 0.982.
GGGAAAAGTC was tested, and the switch fluorescence ratio was 1.01.
With GCGGACGTTA the switch fluorescence ratio was 1.04.
AAAAGCCCAT was tested, and the switch fluorescence ratio was 0.928.
TAACTAGGA gave a switch fluorescence ratio of 0.974.
TAGCTTAACC was tested, and the switch fluorescence ratio was 1.07.
With CTCGTGGATG the switch fluorescence ratio was 0.98.
In the case of CACTCTCGGT, the switch fluorescence ratio is reported as 1.03.
In the case of AGAGCGGGTC, the switch fluorescence ratio is reported as 0.933.
For CAGGCGAGG, the switch fluorescence ratio was 1.01.
TTTAAAATGA showed a switch fluorescence ratio of 0.985.
AGCTATGGTT was tested, and the switch fluorescence ratio was 1.02.
With GGTCAAAGGA the switch fluorescence ratio was 1.07.
With TCAGAGTCCT the switch fluorescence ratio was 0.991.
TCGGCTAAGA gave a switch fluorescence ratio of 1.06.
For GGCTAACAC, the switch fluorescence ratio was 1.31.
In the case of TAAAAGCTAC, the switch fluorescence ratio is reported as 1.15.
For TCAATAAGTC, the switch fluorescence ratio was 0.988.
With AGTTATCTA the switch fluorescence ratio was 1.03.
In the case of AACGTAGGGT, the switch fluorescence ratio is reported as 1.01.
CTGATCCCTG showed a switch fluorescence ratio of 1.01.
TCGAGTCTCT was tested, and the switch fluorescence ratio was 0.998.
For GACAGGTGCA, the switch fluorescence ratio was 1.99.
Sequence CCATTTGTAC has a switch fluorescence ratio of 1.13.
ACTACAAAAA showed a switch fluorescence ratio of 1.07.
Sequence ACAGAGTTTG has a switch fluorescence ratio of 1.
GATCTTGCT was tested, and the switch fluorescence ratio was 0.967.
CTTGTATCAG was tested, and the switch fluorescence ratio was 0.943.
Work on TAAGTCTGT yielded a switch fluorescence ratio of 1.01.
TGTTGAGTCT showed a switch fluorescence ratio of 0.983.
GGATACGGG was tested, and the switch fluorescence ratio was 1.02.
GTCTAAAGAC gave a switch fluorescence ratio of 0.971.
For TGCAGTCCTC, the switch fluorescence ratio was 1.05.
AATTCAGGCT gave a switch fluorescence ratio of 0.977.
In the case of CTATGCATTC, the switch fluorescence ratio is reported as 3.6.
AGTTCCTTCG gave a switch fluorescence ratio of 2.49.
In the case of TATTGTGGA, the switch fluorescence ratio is reported as 0.985.
Work on TGCGGAACGG yielded a switch fluorescence ratio of 0.998.
ATTTAGACAT was tested, and the switch fluorescence ratio was 0.997.
GCTCGACGCC showed a switch fluorescence ratio of 1.91.
TGGAAGAAAC showed a switch fluorescence ratio of 1.05.
GCACTATTTT was tested, and the switch fluorescence ratio was 0.981.
In the case of ACGTTCAAAG, the switch fluorescence ratio is reported as 1.04.
Work on GATGTGTATC yielded a switch fluorescence ratio of 0.981.
Sequence CATACTTGAC has a switch fluorescence ratio of 0.999.
Work on TTCCCAGAAG yielded a switch fluorescence ratio of 1.
For TGCGGAGAAA, the switch fluorescence ratio was 0.981.
With ACCCCAGCAA the switch fluorescence ratio was 2.04.
TCTGCTTATG showed a switch fluorescence ratio of 0.994.
In the case of GAAACGTCTA, the switch fluorescence ratio is reported as 0.991.
Work on ATGGAGTTGT yielded a switch fluorescence ratio of 1.09.
Work on TTTGGGTGTA yielded a switch fluorescence ratio of 1.01.
AGGTATGCGG was tested, and the switch fluorescence ratio was 0.97.
For TGGGACAGC, the switch fluorescence ratio was 1.
Work on TGATAGTCAA yielded a switch fluorescence ratio of 0.966.
TGAAGGATTG was tested, and the switch fluorescence ratio was 0.954.
For TAGATAATGT, the switch fluorescence ratio was 0.979.
In the case of ATGGAGCCCC, the switch fluorescence ratio is reported as 1.
Sequence CTTCGTAGGA has a switch fluorescence ratio of 0.956.
GCCCTTACTA showed a switch fluorescence ratio of 1.11.
In the case of CCGGGCTTTT, the switch fluorescence ratio is reported as 1.03.
Work on GCGTCTATAT yielded a switch fluorescence ratio of 1.03.
TCAGATTGAG gave a switch fluorescence ratio of 0.994.
For TTCTTATCAA, the switch fluorescence ratio was 1.02.
AGGAGGCAGA gave a switch fluorescence ratio of 0.992.
For CAGGCAGGTG, the switch fluorescence ratio was 2.74.
Work on ATAGTTGCAG yielded a switch fluorescence ratio of 0.987.
AGCTCGCGAA was tested, and the switch fluorescence ratio was 0.961.
ACACAGGGGC showed a switch fluorescence ratio of 1.04.
Work on TAAATGGACA yielded a switch fluorescence ratio of 1.01.
With TGTGGCGTGC the switch fluorescence ratio was 1.
For CCCAAAACGC, the switch fluorescence ratio was 1.21.
With GGGATGATGC the switch fluorescence ratio was 0.962.
For GCAGCAGAGC, the switch fluorescence ratio was 1.28.
With AAACCCGTCG the switch fluorescence ratio was 0.991.
Work on CTGAGGAGCC yielded a switch fluorescence ratio of 1.
For GGTACAGGAT, the switch fluorescence ratio was 0.992.
TTTTTCTGAC was tested, and the switch fluorescence ratio was 1.12.
Work on CACTTAAAGC yielded a switch fluorescence ratio of 1.
Sequence GGGTTAGTAT has a switch fluorescence ratio of 0.951.
Sequence GGTCTGGG has a switch fluorescence ratio of 0.977.
For TACTGGGCTA, the switch fluorescence ratio was 1.
Work on CTGAGCCAGC yielded a switch fluorescence ratio of 1.03.
With ACGGTGCGTG the switch fluorescence ratio was 1.08.
With CATTTTGAGT the switch fluorescence ratio was 0.995.
With TCTGGGTCGA the switch fluorescence ratio was 1.03.
TACAATAAGG gave a switch fluorescence ratio of 1.05.
CTCCAGGGAA was tested, and the switch fluorescence ratio was 1.18.
Sequence CCTACCAGCG has a switch fluorescence ratio of 1.54.
TAAATTCGAT gave a switch fluorescence ratio of 0.971.
Work on GGGTTACGAG yielded a switch fluorescence ratio of 1.15.
CGCGTTACTT showed a switch fluorescence ratio of 1.23.
Work on TGTAGGAGTC yielded a switch fluorescence ratio of 1.02.
With TTGGGATAAG the switch fluorescence ratio was 1.
With TGAAATATAC the switch fluorescence ratio was 1.07.
GCGATACCAC gave a switch fluorescence ratio of 1.93.
GAGAGAGATT gave a switch fluorescence ratio of 0.989.
Sequence AAAACTTGAC has a switch fluorescence ratio of 1.05.
Sequence ATGCGACTTA has a switch fluorescence ratio of 1.
In the case of CACTCGTTC, the switch fluorescence ratio is reported as 1.02.
In the case of TCTTTTTACG, the switch fluorescence ratio is reported as 1.04.
In the case of CTTTGGGACT, the switch fluorescence ratio is reported as 1.01.
Sequence CAGGGAGACA has a switch fluorescence ratio of 1.01.
For GCATAAAGAA, the switch fluorescence ratio was 1.02.
Sequence CATATTTTGG has a switch fluorescence ratio of 0.987.
With CAGAAAGATG the switch fluorescence ratio was 1.5.
With TGACATTCTG the switch fluorescence ratio was 1.05.
With GGGGATTCGA the switch fluorescence ratio was 1.01.
Work on CGCCGCGATG yielded a switch fluorescence ratio of 4.55.
In the case of GCTTAACATG, the switch fluorescence ratio is reported as 1.
TGTCTGAGTA gave a switch fluorescence ratio of 1.02.
In the case of CGATAGACT, the switch fluorescence ratio is reported as 1.03.
TAGGAGAATC was tested, and the switch fluorescence ratio was 0.91.
TCTCATCACT was tested, and the switch fluorescence ratio was 0.991.
GGAAGAAGGG showed a switch fluorescence ratio of 0.931.
For TCATAAGTCT, the switch fluorescence ratio was 0.998.
With TAAACACTGA the switch fluorescence ratio was 1.08.
Work on TTTCGACCTC yielded a switch fluorescence ratio of 1.1.
With CGCGTTTGC the switch fluorescence ratio was 1.1.
For CCACCAGTAG, the switch fluorescence ratio was 2.2.
GGCCGGGGAA was tested, and the switch fluorescence ratio was 1.04.
ATGATAGTA was tested, and the switch fluorescence ratio was 0.963.
In the case of TGAAAGGGTG, the switch fluorescence ratio is reported as 1.07.
With CGTGTTCTTT the switch fluorescence ratio was 1.01.
Sequence CATTTGATTC has a switch fluorescence ratio of 1.03.
CGTCCGGATA gave a switch fluorescence ratio of 3.34.
With ACACACACTT the switch fluorescence ratio was 1.37.
TAATTTTAAC showed a switch fluorescence ratio of 1.03.
With AAGCTATGTT the switch fluorescence ratio was 1.
Sequence TCTCGAAGTT has a switch fluorescence ratio of 1.08.
Work on ATATTAGTTC yielded a switch fluorescence ratio of 1.01.
For CGGAGGAGTT, the switch fluorescence ratio was 0.957.
TCGTTTGTGC gave a switch fluorescence ratio of 0.995.
In the case of AAGGTAGGT, the switch fluorescence ratio is reported as 0.984.
ACGTAGGGGC showed a switch fluorescence ratio of 1.1.
